Source: PubChem BioAssay AID2546 (National Center for Advancing Translational Sciences (NCATS), 2010)
Among all 310,000 compounds or so, about 11,000 (3.5%) were called active. This list was built around the results that the source calls inconclusive (neither active nor inactive); the mix of calls is not that of the screen. Calls follow the shape of the dose curve; as a rule, active = well fitted inhibition curve with a large enough effect; inconclusive = small, poorly fitted or top-dose-only effect, or effect the other way; inactive = flat fitted curve, though single readings scatter. Potencies of inconclusive entries are left out as doubtful fits.

Test: VP16 counterscreen qHTS for inhibitors of ROR gamma transcriptional activity;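 also: Gal4-VP16 expression switched on by copper sulfate through the metallothionein promoter; nearly all actives have a fitted effect of over 50% in size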
Details: Drosophila S2 Gal4-VP16 UAS-luciferase, luminescence, 20 h; activity, negative = inhibition: at 53.6 µM (top of the series)
% is scaled to controls: 0 for no effect and ±100 for the full control effect; potency is read from the fitted curve at half-maximal effect; tags tell the direction and shape of the fitted curve.

| Structure (SMILES) | Potency | activity, negative = inhibition |
| --- | --- | --- |
| O=[N+]([O-])c1ccc(/C=C/C2=NN(c3ccccc3)C(c3ccco3)C2)cc1 (stereo unspecified) | active: 20 µM |  |
| COc1ccc(C2CC(C(F)(F)F)n3nc(C(=O)NCc4c(C)nn(C)c4C)c(Cl)c3N2)cc1 (stereo unspecified) | active: 22.4 µM |  |
| CCC(C)NC(=O)c1ccc(C2SCC(=O)N2Cc2ccccc2)cc1 (stereo unspecified) | inactive |  |
| NNC(=O)c1cc(-c2ccc(N)cc2)nc2ccc(Br)cc12 | inconclusive [inhibitor, single point] |  |
| O=C(Cc1cn(-c2ccccc2)nc1-c1ccccc1)N1CCCCC1 | inconclusive [inhibitor, single point] |  |
| Cc1ccccc1OCC(=O)Nc1cc(Cl)ccc1Oc1ccccc1 | inactive |  |
| Cc1cc(C)c(NC(=O)/C(=C/c2ccccc2)c2ccccc2)c(C)c1 | inconclusive [inhibitor, single point] |  |
| COc1ccccc1-c1cncnc1NCCc1cnc[nH]1 | inactive |  |
| CCSc1ncc(/C=N/Nc2ccccc2)n1C | inconclusive [activator, single point] |  |
| COc1cc(C(=O)N/N=C/c2cn(Cc3cccc(F)c3)c3ccccc23)ccc1O | inconclusive [inhibitor, single point] |  |
| CC(COc1ccc(C(C)C)cc1)NC(=O)c1ccc(Br)o1 (stereo unspecified) | inconclusive [inhibitor, single point] |  |
| COC(=O)COC(=O)c1ccc(-n2nnnc2SC)cc1 | inactive |  |
| CC(C)NC(=O)C1CCCN(S(=O)(=O)c2cccs2)C1 (stereo unspecified) | inconclusive [inhibitor, single point] |  |
| C=CCn1c(Cc2cccc3ccccc23)n[nH]c1=S | active: 11.2 µM |  |
| Cc1ccc(-c2nc3cc(NC(=O)C(C)C)ccc3o2)cc1C | inconclusive [inhibitor, single point] |  |
| CCNCc1nc2cc(OC)c(OC)cc2c(=O)[nH]1 | inactive |  |
| O=C(Nc1cccc([N+](=O)[O-])c1)N1CCc2ccccc2C1 | inconclusive [activator, full curve, poor fit] |  |
| COc1ccc(C(=O)NCC(=O)Nc2ccccc2)cc1OC |  | inactive: -11% [at 0.365 µM] |
| CC(C)c1ccccc1NC(=S)NC1CCN(Cc2ccccc2)CC1 | active: 15.8 µM |  |
| Nn1c(-c2cccs2)nc2sc3c(c2c1=O)CCCC3 | inconclusive [inhibitor, single point] |  |
| CCN(CC)c1ccc(C(=C2C=CC(=[N+](CC)CC)C=C2)c2ccccc2)cc1 | active: 35.5 µM |  |
| Clc1ccc(Cn2c(CN3CCCC3)nc3ccccc32)cc1 | active: 7.08 µM |  |
| CC(=O)O[C@]1(C(C)=O)CC[C@@H]2[C@@H]3C=C(Cl)C4=CC(=O)[C@H]5C[C@@H]5[C@]4(C)[C@H]3CC[C@]21C | inactive |  |
| CCC(=O)c1cn(CC(=O)Nc2cccc(C)c2)c2ccccc12 | inactive |  |
| O=C(N/N=C/c1ccccc1)c1cc(=O)[nH]c2ccccc12 | inconclusive [activator, single point] |  |
| Cc1c(C(=O)N2CCCC2)oc2c1-c1[nH]ncc1CC2 | inactive |  |

| Structure (SMILES) | Potency | activity, negative = inhibition |
| --- | --- | --- |
| O=C(Nc1ccc2c(c1)CCC2)c1ccc(F)cc1 | inconclusive [inhibitor, single point] |  |
| O=C(CSc1ccccc1)Nc1cccc(S(=O)(=O)N2CCCC2)c1 | inconclusive [activator, single point] |  |
| Cc1cccc(NC(=O)c2ccc3nc(N4CCOCC4)sc3c2)c1C | inconclusive [inhibitor, single point] |  |
| CNc1nc(Cl)nc(Nc2ccccc2)n1 | inconclusive [activator, single point] |  |
| O=C(NC1=NCCS1)c1sc2ccccc2c1Cl | inconclusive [inhibitor, single point] |  |
| Fc1ccc2[nH]c3c(NCc4ccccc4)ncnc3c2c1 | active: 5.62 µM |  |
| C/C(=N\OCc1ccc(C#N)cc1)c1ccccc1 | inactive |  |
| CCOC(=O)C1CCCN(C(=S)Nc2cc(C)cc(C)c2)C1 (stereo unspecified) | inconclusive [inhibitor, single point] |  |
| O=C(NCc1ccccc1)C1CCN(c2nc(-c3ccccc3)nc3c2CCC3)CC1 | inactive |  |
| Cc1ccccc1NC(=O)C(=O)NCCc1ccccc1 | inactive |  |
| Cn1c(CNc2ccc(Br)cc2)nc2ccccc21 | inconclusive [activator, full curve, poor fit] |  |
| CC1CCc2c(nc3ncnn3c2N2CCN(c3ccccc3)CC2)C1 (stereo unspecified) | inactive |  |
| CCCCNC(=S)N/N=C/c1ccc(C#N)cc1 | inconclusive [inhibitor, single point] |  |
| Cc1cccc(Cn2cc(/C=C/[N+](=O)[O-])c3ccccc32)c1 | inconclusive [inhibitor, single point] |  |
| N#CC1=C(N)NC(SCc2ccc(Br)cc2)=C(C#N)C12CCCCC2 | inconclusive [inhibitor, single point] |  |
| O=C(c1ccc([N+](=O)[O-])cc1)N1CCN=C1SCc1ccccc1 | inconclusive [inhibitor, single point] |  |
| COc1ccc2c(c1)c1ccc3c(c1n2C)C(=O)C=CC3=O | active: 12.6 µM |  |
| Cc1cc(=O)[nH]c(-c2ccccc2)n1 | inactive |  |
| O=C(C1CC(=O)N(c2ccccc2)C1)N1CCN(c2ccccc2)CC1 (stereo unspecified) | inactive |  |
| COc1ccc(NC2=NC(=S)N(c3cccc(C)c3)C23CCCCC3)cc1 | inconclusive [inhibitor, partial curve] |  |
| Cc1c(CC(=O)NCCC(C)C)c(=O)oc2cc3c(cc12)CCC(C)(C)O3 | inconclusive [inhibitor, partial curve] |  |
| CN1/C(=C\C(=S)NC(=O)c2cccc(Br)c2)C(C)(C)c2ccccc21 | active: 6.31 µM |  |
| Cc1c(Cl)c(C(=O)NNC(=S)NCc2ccco2)nn1C | inactive |  |
| Cc1ccc(-c2nc(-c3ccccn3)no2)cc1 | active: 2 µM |  |
| O=C1C(=O)c2ccccc2C(O)=C1CCCCl | inconclusive [inhibitor, single point] |  |
